This note sets out measurements from patent US20060045881A1, “Anti-cancer vaccines” (Board of Regents, The University of Texas System, priority 2004, published 2006).

The test system of one experiment is T2 cells. Kind of experiment: 4-hr cytotoxicity of peptide-elicited CTL lines against peptide-loaded T2 cells. The note with it: for elicitation of peptide specific CTL lines: different donors and differing peptide concentrations; for donors whose peptide-stimulated CTL lines killed CCNE1- and CCNE2-peptide-pulsed T2 cells: PBMCs from 7 HLA-A2 positive normal donors. As for the experimental part:
CTL cytotoxicity assay. A semiautomated minicytotoxicity assay was used to determine specific lysis as described previously (Molldrem, 2000; Molldrem et al., 1996). Briefly, effector cells were prepared in doubling dilutions from 6×10^3 to 25×10^3 cells/well and were plated in 40 μl, 60-well Terasaki trays (Robbins Scientific, Sunnyvale, Calif., USA) with six replicates per dilution. Target cells (T2 cells, marrow-derived leukemic cells, or BM from a healthy donor) at a concentration of 2×10^6 cells/ml were stained with 10 μg/ml of Calcein-AM (Molecular Probes Inc.) for 60 min at 37° C. After washing three times in CM plus 10% AB, target cells were resuspended at 10^5 cells/ml, and 10^3 target cells in 10 μl medium were added to each well containing effector cells. Wells with target cells alone and medium alone were used for maximum (max) and minimum (min.) fluorescence emission, respectively. After 4 hr incubation at 37° C. in 5% CO2, 5 μl FluoroQuench (One Lambda Inc., Canoga Park, Calif., USA) was added to each well, and the trays were centrifuged for 1 min at 60 g before measurement of fluorescence using an automated CytoFluor II plate reader (PerSeptive Biosystems, Framingham, Mass., USA). The percentage of lysis was calculated as follows: % lysis={1−[(mean experimental mission−mean min.)/(mean max−mean min.)]}×100%.
Induction of Primary CTL responses to peptides. These peptides were next used to stimulate T cells specific for peptide-coated targets. PBMC from a normal healthy donor heterozygous for HL-A2.1 were stimulated with peptide-pulsed T2 cells. The T2 cell line has been used by others as an antigen presenting cell for the generation of peptide-specific CTL. Briefly, T2 cells (which co-express the costimulatory molecule B7.1) were washed 3 times in serum-free RPMI culture media supplemented with penicillin/streptomycin and glutamine (CM) and incubated with peptide at 20 μg/mL for 2 hr in CM. The peptide loaded T2 cells were then irradiated with 7500 cGy, washed once, and suspended with freshly isolated PBMC at a 1:1 ratio in CM supplemented with 10% human serum (HS) (Sigma, St. Louis, Mo.). After 7 days in culture, a second stimulation was performed and the following day, 60 IU/mL of recombinant human interleukin-2 (rhIL2) (Biosource International, Camarillo, Calif.) was added. After 14 days in culture a third stimulation was performed, followed on day 15 by addition of rhIL-2. A fourth stimulation was performed on day 21 followed on day 22 by the addition of rhIL2. After a total of 27 days in culture, the peptide-stimulated T cells were harvested and tested for peptide-specific cytotoxicity toward Calcein AM-labeled T2 cells, leukemia cell lines, and fresh human leukemia cells.
The five MPO peptides discussed above, were used to stimulate T cells specific for peptide-coated targets. PBMC from a normal healthy donor heterozygous for HLA-A2.1 were stimulated with peptide-pulsed T2 cells. The T2 cell line has been used by others as an antigen presenting cell for the generation of peptide-specific CTL. Briefly, T2 cells (which co-express the costimulatory molecule B7.1) were washed 3 times in serum-free RPMI culture media supplemented with penicillin/streptomycin and glutamine (CM) and incubated with peptide at concentrations ranging from 0.2 to 200 μg/mL for 2,hr in CM. […]

For experiment [1], the system named is HLA-A2 transfected K562 leukemic cell line. Put plainly: Killing of HLA-A2 transfected K562 by CCNE1 peptide-stimulated CTL lines. Conditions: not non-transfected K562.

On to SLWRRPFNV [MY1], for which the “elicitation of peptide specific CTL lines” value in the experiment with T2 cells is listed as “No peptide specific CTL lines could be elicited”.
Turning to ILLDWLMEV [CCNE1144-152], the “donors whose peptide-stimulated CTL lines killed CCNE1- and CCNE2-peptide-pulsed T2 cells” value with T2 cells is listed as 3 of 7. For the same sequence, the “peptide-stimulated CTL lines that killed HLA-A2 transfected K562” value in experiment [1] is reported as “one of 4”.
Take LIQPFMFRL [MY5]: the “elicitation of peptide specific CTL lines” value with T2 cells was “No peptide specific CTL lines could be elicited”.
Same read-out and setting: the value for LLSYFKQPV [MY3] was “No peptide specific CTL lines could be elicited”.
Turning to ILLDWLLEV [CCNE2144-152], the “donors whose peptide-stimulated CTL lines killed CCNE1- and CCNE2-peptide-pulsed T2 cells” value with T2 cells was 4 of 7.
